In all, about 310,000 compounds went through this assay and about 14,000 (4.5%) showed an effect of 50% or more. Effects have a minus sign here. This is one part of the list.
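Note: peak tail current of the secondary pulse compared with the same well before compound.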

human ether-à-go-go-related gene (hERG) potassium channel, sequence (Q12809 whole entry, looked up): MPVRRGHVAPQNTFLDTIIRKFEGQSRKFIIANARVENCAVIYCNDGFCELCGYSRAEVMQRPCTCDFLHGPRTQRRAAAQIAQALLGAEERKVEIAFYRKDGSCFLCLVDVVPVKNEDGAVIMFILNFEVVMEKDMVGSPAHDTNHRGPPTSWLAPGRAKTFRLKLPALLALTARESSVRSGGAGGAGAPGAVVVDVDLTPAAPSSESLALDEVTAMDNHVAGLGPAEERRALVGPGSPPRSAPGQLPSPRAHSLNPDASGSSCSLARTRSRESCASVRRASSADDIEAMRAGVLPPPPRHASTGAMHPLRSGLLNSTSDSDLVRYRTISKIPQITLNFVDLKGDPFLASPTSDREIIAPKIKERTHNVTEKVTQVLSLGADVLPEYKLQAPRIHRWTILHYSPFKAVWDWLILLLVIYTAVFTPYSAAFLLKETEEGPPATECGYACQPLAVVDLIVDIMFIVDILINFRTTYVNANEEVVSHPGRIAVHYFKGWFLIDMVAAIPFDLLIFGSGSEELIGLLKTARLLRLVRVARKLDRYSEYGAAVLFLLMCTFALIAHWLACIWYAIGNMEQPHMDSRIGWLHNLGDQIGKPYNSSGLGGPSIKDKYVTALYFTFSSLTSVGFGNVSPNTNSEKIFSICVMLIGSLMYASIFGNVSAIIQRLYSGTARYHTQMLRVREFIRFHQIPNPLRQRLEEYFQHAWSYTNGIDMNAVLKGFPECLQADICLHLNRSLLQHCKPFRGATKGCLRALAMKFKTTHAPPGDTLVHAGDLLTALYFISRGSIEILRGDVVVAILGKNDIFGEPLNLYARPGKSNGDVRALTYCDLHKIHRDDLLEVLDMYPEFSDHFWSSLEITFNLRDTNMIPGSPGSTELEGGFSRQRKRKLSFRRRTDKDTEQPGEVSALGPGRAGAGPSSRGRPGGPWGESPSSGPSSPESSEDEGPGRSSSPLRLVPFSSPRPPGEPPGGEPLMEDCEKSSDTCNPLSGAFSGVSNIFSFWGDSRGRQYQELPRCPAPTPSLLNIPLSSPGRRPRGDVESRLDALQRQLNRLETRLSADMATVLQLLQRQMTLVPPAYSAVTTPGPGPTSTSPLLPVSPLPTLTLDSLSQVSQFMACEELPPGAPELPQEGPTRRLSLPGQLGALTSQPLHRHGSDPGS

The test has as its target human ether-à-go-go-related gene (hERG) potassium channel (human, UniProt Q12809). In words: primary screen, population patch clamp on CHO cells stably expressing hERG.
Consider `C[C@@H](NC(=O)c1nc[nH]c1C(=O)N[C@@H](Cc1ccccc1)C(=O)OC(C)(C)C)c1ccccc1`, for which the “hERG current change (%, negative = inhibition) at 10uM” value was determined as 12.3%. The figure for `O=C1OC(=O)C2C1[C@@H]1CC[C@H]2O1` (stereo partly drawn) is 4.05%. The figure for `COc1ccc(/C=C(/NC(=O)c2ccccc2)C(=O)N2CCC(C)CC2)cc1` is -38.4%; for `COCCN1C(=O)c2oc3c(C)cc(C)cc3c(=O)c2C1c1cccc(O)c1` (stereo not drawn) it is -3.77%; for `Cc1c(CCOC(=O)c2ccc(N3CCOCC3)c([N+](=O)[O-])c2)sc[n+]1CC#N.[Cl-]` it is -33.3%.

As to `COc1cccc(NC(=O)c2ccc(Cn3cc([N+](=O)[O-])cn3)o2)c1`, the “hERG current change (%, negative = inhibition) at 10uM” value was -45.8%. The figure for `CCOc1cccc(/C=C/c2ccc3ccccc3n2)c1OC(C)=O` is 16.3%; for `COc1ccc(NC(=O)N2CCCC2C(=O)Nc2ccc(C)cc2C)cc1` (stereo not drawn) it is 0.743%. The figure for `CN(C(=O)Cn1nnc2ccccc2c1=O)C1CCCCC1` is -8.8%; for `Cc1cc(C[n+]2cc(Br)ccc2N)c2ncccc2c1.[Br-]` it is -68%; for `c1ccc(Cn2nnnc2CN2CCOCC2)cc1` it is -0.538%. Take `Cc1cccc(C(=O)N2CCC(=O)N(C(COCc3cccc(Cl)c3)Cc3ccccc3)CC2)c1` (stereo not drawn): the “hERG current change (%, negative = inhibition) at 10uM” value is -11.6%. The figure for `COc1ccc(S(=O)(=O)n2nc(OC(=O)c3ccccc3Br)cc2N)cc1` is 0.611%; for `O=C(Nc1ccc(NC(=O)c2ccccn2)cc1)C(=O)Nc1ccc2c(c1)OCCO2` it is 18.8%. Under `COc1ccc(-c2ccc3oc(-c4ccc(OC)cc4)c(C#CCCO)c3c2)cc1` stands 9.38%; under `COc1ccc(C(=O)Nc2ccccc2C(=O)NC(Cc2ccc(O)cc2)C(=O)NNC(=O)c2ccc(C)cc2)cc1` (stereo not drawn), 4.45%. The figure for `CC(=O)N[C@@H](Cc1c[nH]c2ccccc12)C(=O)OCc1ccc(C#N)cc1` is -22.8%; for `COc1ccccc1N1CCN(C(=O)c2noc(C(C)C)c2[N+](=O)[O-])CC1` it is 13%; for `CC(=O)c1ccc(N2CCN(S(=O)(=O)c3ccc4ccccc4c3)CC2)cc1` it is 3.28%. On to `O=C1ON=C(c2cccc([N+](=O)[O-])c2)/C1=C/c1ccc(O)cc1`, for which the “hERG current change (%, negative = inhibition) at 10uM” value is listed as 21.9%.

As for `Cn1c(COc2cccc3cccnc23)nnc1SCC(=O)O`, the “hERG current change (%, negative = inhibition) at 10uM” value is 9.13%. Under `COc1cc(NS(=O)(=O)c2c(C)oc3c(F)c(F)c(F)c(F)c23)cc(OC)c1OC` stands -26.7%; under `O=C(Nc1nnc(SCc2ccccc2F)s1)C1=COCCO1`, -30.6%; under `COc1ccc(NS(=O)(=O)c2ccc(NS(=O)(=O)c3ccc(SC)cc3)cc2)c(OC)c1`, -6.56%.

Regarding `CCCc1cc(=O)[nH]c(/N=C(/NC(=O)C(C)N2C(=O)c3ccccc3C2=O)Nc2ccccc2)n1` (stereo not drawn), the “hERG current change (%, negative = inhibition) at 10uM” value was 13.5%. On to `COc1ccccc1C1/C(=C(/O)c2ccc(OC(C)C)cc2)C(=O)C(=O)N1c1cc(C)on1` (stereo not drawn), for which the “hERG current change (%, negative = inhibition) at 10uM” value was -1.75%. The figure for `O=C1CSC(c2ccccc2F)N1c1ccccc1` (stereo not drawn) is 0.868%; for `Nn1c(COc2cccc(Cl)c2)nc2ccccc2c1=O` it is -11.8%. The figure for `COC(=O)Nc1ccc(S(=O)(=O)Nc2ccccc2F)cc1` is 13.6%. The figure for `O=C(Cc1ccc(S(=O)(=O)N2CCOCC2)s1)Nc1cc(C(F)(F)F)ccc1N1CCCC1` is -22.6%; for `CN1CCCN(C(=O)COc2ccccc2Br)CC1` it is -2.57%; for `CN(C)S(=O)(=O)c1cccc(NC(=O)c2ccc(Sc3nncn3C)c([N+](=O)[O-])c2)c1` it is 7.09%. As for `COc1cc2c(cc1OC)[C@H](Cc1ccc(O)cc1)NCC2`, the “hERG current change (%, negative = inhibition) at 10uM” value is on record as 2.2%. Under `COc1ccc(/C=C2/C(=O)N=C(N)N2C)cc1OC` stands 7.3%; under `COc1ccc(C/C(C)=N/NC(=S)Nc2ccccc2)cc1`, 1.88%. Under `Cc1ccc(-c2cc(C(=O)Nc3ccc4c(c3)OCCO4)c3ccccc3n2)cc1` stands 14.2%; under `CC(C)(C)C(=O)NC(=S)Nc1ccc(Cl)c(C(=O)O)c1`, 24.4%. Consider `CCC(C)N(C(=O)CSc1nc(-c2ccccc2)cs1)C1CCS(=O)(=O)C1` (stereo not drawn), for which the “hERG current change (%, negative = inhibition) at 10uM” value was -8.26%.

Turning to `O=C(O)/C=C/c1ccccc1Oc1ccccc1`, the “hERG current change (%, negative = inhibition) at 10uM” value is 14%. Under `CC(C)Sc1nnc([C@@H]2CCCN2C(=O)OC(C)(C)C)o1` stands 14.7%; under `O=C(CN1CCN(S(=O)(=O)c2ccc(Cl)cc2)CC1)Nc1ccc2c(c1)OCCO2`, -5.94%; under `CCOC(=S)N/C(=N\S(C)(=O)=O)c1ccccc1`, -2.92%. Under `Cc1ccn2c(=O)c(C(=O)NCCC3=CCCCC3)c(O)nc2c1` stands 3.47%. In the case of `N/C(=N\O)c1ccc(NC(=O)c2ccc(Br)o2)cc1`, the “hERG current change (%, negative = inhibition) at 10uM” value is -12.4%. The figure for `COC(=O)C1(C)NC(c2ccc(O)cc2)C2C(=O)N(c3ccc(F)cc3)C(=O)C21` (stereo not drawn) is 12.4%. Under `Cc1ccc(NC(=O)C(=O)NNC(=O)c2ccccc2C)cc1Cl` stands -5.32%; under `CC(C)(C)NCC(O)(c1ccc(Cl)cc1)c1ccc(Cl)cc1`, -13.8%; under `O=C(CN1C(=O)NC2(CCCCCC2)C1=O)Nc1ccc(S(=O)(=O)N2CCOCC2)cc1`, 9.75%. Under `CC(=O)N(CC1CCCO1)c1nnc(-c2cnccn2)s1` (stereo not drawn) stands 12.8%; under `Cc1ccc(S(=O)(=O)NNC2=NS(=O)(=O)c3ccccc32)c(C)c1`, 16.1%. Regarding `CCCCN(CCCC)S(=O)(=O)c1ccc(OC)c2ncccc12`, the “hERG current change (%, negative = inhibition) at 10uM” value is recorded as -13.2%. Under `CN(/N=C/c1cc(Br)cc(Br)c1O)c1cccc(C(F)(F)F)n1` stands 23.7%; under `O=S(=O)(Nc1cccc(-n2cnnn2)c1)c1ccc(Cl)nc1`, 5.49%; under `Cc1nc(N2CCN(Cc3ccccc3)CC2)nc2c1C(=O)CC(C)C2` (stereo not drawn), -5.32%.
